Laboratory results reported in the supplement of paper PMC4604168 (melanoma cell lines).
The list shows a part of the results. Single values are uncertain, as repeats are few or missing.

How the values were obtained:
Experiment in all cases: cell count relative to DMSO control; melanoma cells; higher = more viable cells
Details in all cases: library dose: low library concentration; 72 h
WM115 = test system: WM115
WM1716 = test system: WM1716
WM1745 = test system: WM1745
WM3526 = test system: WM3526
WM3619 = test system: WM3619
WM451Lu = test system: WM451Lu
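Also: cell number obtained by counting DAPI-stained nuclei in high-throughput microscope images with image analysis software, screen run in 1,536-well plates.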

`OCCn1cc(-c2cnc3nnn(Cc4ccc5ncccc5c4)c3n2)cn1` + CN(C)S(=O)(=O)c1ccc2c(c1)/C(=C/c1cc3c([nH]1)CCCC3)C(=O)N2 [SU6656] (first compound 1 µM, partner dose 0.4 µM) showed a cell count (WM115) of 71.4%, a cell count (WM1716) of 112% and a cell count (WM1745) of 112%. It also gave a cell count (WM3526) of 86.9%, a cell count (WM3619) of 110% and a cell count (WM451Lu) of 81.2%.

`C[C@]1(c2nc3c(C(N)=O)cccc3[nH]2)CCCN1` [Veliparib] + C=CCn1c(=O)c2cnc(Nc3ccc(N4CCN(C)CC4)cc3)nc2n1-c1cccc(C(C)(C)O)n1 [MK1775] (first compound 1.4 µM, partner dose 0.02 µM) was tested, and the cell count (WM115) was 74.1%, the cell count (WM1716) was 66.5% and the cell count (WM1745) was 75.9%. For the same molecule, the cell count (WM3526) was 103%, the cell count (WM3619) was 64.5% and the cell count (WM451Lu) was 93.9%.

`C[C@]1(c2nc3c(C(N)=O)cccc3[nH]2)CCCN1` [Veliparib] + Cc1ccc(NC(=O)c2cccc(N(C)C)c2)cc1NC(=O)c1ccc(O)cc1 [ZM336372] (first compound 1.4 µM, partner dose 2 µM) showed a cell count (WM115) of 77.1%, a cell count (WM1716) of 94.3% and a cell count (WM1745) of 95.8%. For the same molecule, the cell count (WM3526) was 128%, the cell count (WM3619) was 75% and the cell count (WM451Lu) was 81.8%.

Molecule `NC(=O)Nc1cc(-c2cccc(F)c2)sc1C(=O)N[C@H]1CCCNC1` + CCc1ccc(CCOc2ccc(CC3SC(=O)NC3=O)cc2)nc1 [pioglitazone] (first compound 0.02 µM, partner dose 2 µM) has a cell count (WM115) of 96.7%, a cell count (WM1716) of 103% and a cell count (WM1745) of 101%. For the same molecule, the cell count (WM3526) was 88.2%, the cell count (WM3619) was 64.2% and the cell count (WM451Lu) was 100%.

In the case of `CO[C@@H]1[C@H](N(C)C(=O)c2ccccc2)C[C@H]2O[C@]1(C)n1c3ccccc3c3c4c(c5c6ccccc6n2c5c31)C(=O)NC4` [Midostaurin] + CCc1ccc(CCOc2ccc(CC3SC(=O)NC3=O)cc2)nc1 [pioglitazone] (first compound 0.08 µM, partner dose 2 µM), the cell count (WM115) was 79.8%, the cell count (WM1716) was 77.2% and the cell count (WM1745) was 72%. It also gave a cell count (WM3526) of 99.7%, a cell count (WM3619) of 108% and a cell count (WM451Lu) of 89.6%.

Work on `OCCn1cc(-c2cnc3nnn(Cc4ccc5ncccc5c4)c3n2)cn1` + Oc1nc(-c2ccc(C(F)(F)F)cc2)nc2c1CSCC2 [XAV939] (first compound 1 µM, partner dose 2 µM) yielded a cell count (WM115) of 92.9%, a cell count (WM1716) of 65.1% and a cell count (WM1745) of 88.5%. For the same molecule, the cell count (WM3526) was 119%, the cell count (WM3619) was 114% and the cell count (WM451Lu) was 107%.

Molecule `NC(=O)Nc1cc(-c2cccc(F)c2)sc1C(=O)N[C@H]1CCCNC1` + COc1ccc(COc2ccc(Cc3cnc(N)nc3N)cc2OC)cc1 [GW2580] (first compound 0.02 µM, partner dose 1 µM) has a cell count (WM115) of 96.2%, a cell count (WM1716) of 87.7% and a cell count (WM1745) of 89.5%. It also gave a cell count (WM3526) of 78.4%, a cell count (WM3619) of 55.7% and a cell count (WM451Lu) of 96.3%.

Work on `NCC(=O)Nc1ccc(-n2nc(C(F)(F)F)cc2-c2ccc3c(ccc4ccccc43)c2)cc1` + c1cc(-c2cnn3cc(-c4ccc(OCCN5CCCCC5)cc4)cnc23)ccn1 [Dorsomorphin] (first compound 1 µM, partner dose 0.4 µM) yielded a cell count (WM115) of 84.9%, a cell count (WM1716) of 96.2% and a cell count (WM1745) of 86.2%. It also gave a cell count (WM3526) of 58.3%, a cell count (WM3619) of 118% and a cell count (WM451Lu) of 67%.

With `CO[C@@H]1[C@H](N(C)C(=O)c2ccccc2)C[C@H]2O[C@]1(C)n1c3ccccc3c3c4c(c5c6ccccc6n2c5c31)C(=O)NC4` [Midostaurin] + O=C(O)C(=O)Nc1sc2c(c1C(=O)O)CCNC2 [TCS401] (first compound 0.08 µM, partner dose 1.66667 µM) the cell count (WM115) was 97.6%, the cell count (WM1716) was 88.5% and the cell count (WM1745) was 95.8%. For the same molecule, the cell count (WM3526) was 101%, the cell count (WM3619) was 108% and the cell count (WM451Lu) was 116%.

With `Cc1nc(Nc2ncc(C(=O)Nc3c(C)cccc3Cl)s2)cc(N2CCN(CCO)CC2)n1` [dasatanib] + Cn1nnc2c(C(N)=O)ncn2c1=O [temozolomide] (first compound 0.004 µM, partner dose 2 µM) the cell count (WM115) was 81.8%, the cell count (WM1716) was 67.5% and the cell count (WM1745) was 78.6%. The cell count (WM3526) was 98.4%, the cell count (WM3619) was 106% and the cell count (WM451Lu) was 87.9%.

Work on `Cc1nc(Nc2ncc(C(=O)Nc3c(C)cccc3Cl)s2)cc(N2CCN(CCO)CC2)n1` [dasatanib] + O=C1NC(=O)/C(=C/c2ccc(-c3ccc(F)cc3O)o2)S1 [AS252424] (first compound 0.004 µM, partner dose 1 µM) yielded a cell count (WM115) of 70.5%, a cell count (WM1716) of 77.4% and a cell count (WM1745) of 81%. It also gave a cell count (WM3526) of 109%, a cell count (WM3619) of 97.1% and a cell count (WM451Lu) of 94.3%.

`C=CCn1c(=O)c2cnc(Nc3ccc(N4CCN(C)CC4)cc3)nc2n1-c1cccc(C(C)(C)O)n1` + O=S(=O)(c1ccccc1)N(CC(F)(F)F)c1ccc(C(O)(C(F)(F)F)C(F)(F)F)cc1 [T0901317] (first compound 0.02 µM, partner dose 1.4 µM) showed a cell count (WM115) of 85.3%, a cell count (WM1716) of 82.4% and a cell count (WM1745) of 62.1%. It also gave a cell count (WM3526) of 101%, a cell count (WM3619) of 73.2% and a cell count (WM451Lu) of 104%.

In the case of `Cc1nc(Nc2ncc(C(=O)Nc3c(C)cccc3Cl)s2)cc(N2CCN(CCO)CC2)n1` [dasatanib] + O=c1cc(-c2cccc3c2Sc2ccccc2S3)oc(N2CCOCC2)c1 [KU55933] (first compound 0.004 µM, partner dose 1 µM), the cell count (WM115) was 77.6%, the cell count (WM1716) was 71.4% and the cell count (WM1745) was 73.6%. The cell count (WM3526) was 74.8%, the cell count (WM3619) was 86.7% and the cell count (WM451Lu) was 81.9%.

Work on `C=CCn1c(=O)c2cnc(Nc3ccc(N4CCN(C)CC4)cc3)nc2n1-c1cccc(C(C)(C)O)n1` + O=C(O)c1ccc(-c2c[nH]c3ncc(-c4ccccc4)cc23)cc1C1CCCC1 [GSK650394] (first compound 0.02 µM, partner dose 0.16 µM) yielded a cell count (WM115) of 83.5%, a cell count (WM1716) of 80.6% and a cell count (WM1745) of 75.5%. It also gave a cell count (WM3526) of 80.6%, a cell count (WM3619) of 44.3% and a cell count (WM451Lu) of 129%.

For `C=CCn1c(=O)c2cnc(Nc3ccc(N4CCN(C)CC4)cc3)nc2n1-c1cccc(C(C)(C)O)n1` + O=C1NC(=O)/C(=C/c2ccc(-c3ccc(F)cc3O)o2)S1 [AS252424] (first compound 0.02 µM, partner dose 1 µM), the cell count (WM115) was 103%, the cell count (WM1716) was 88.1% and the cell count (WM1745) was 92.3%. For the same molecule, the cell count (WM3526) was 90.1%, the cell count (WM3619) was 89.9% and the cell count (WM451Lu) was 127%.

`C[C@]1(c2nc3c(C(N)=O)cccc3[nH]2)CCCN1` [Veliparib] + NCC(=O)Nc1ccc(-n2nc(C(F)(F)F)cc2-c2ccc3c(ccc4ccccc43)c2)cc1 [OSU03012] (first compound 1.4 µM, partner dose 1 µM) showed a cell count (WM115) of 85.4%, a cell count (WM1716) of 89.8% and a cell count (WM1745) of 97.5%. The cell count (WM3526) was 49.5%, the cell count (WM3619) was 89% and the cell count (WM451Lu) was 66.9%.

Molecule `C=CCn1c(=O)c2cnc(Nc3ccc(N4CCN(C)CC4)cc3)nc2n1-c1cccc(C(C)(C)O)n1` + CC(C)(C)c1cnc(CSc2cnc(NC(=O)C3CCNCC3)s2)o1 [SNS-032] (first compound 0.02 µM, partner dose 0.01 µM) has a cell count (WM115) of 87.9%, a cell count (WM1716) of 87.6% and a cell count (WM1745) of 75.9%. For the same molecule, the cell count (WM3526) was 95.2%, the cell count (WM3619) was 76.4% and the cell count (WM451Lu) was 105%.
